Patent publication US20110124877A1, “5-BENZYL-4-AZOLYLMETHYL-4-SPIRO[2.4]HEPTANOL DERIVATIVES, METHODS FOR PRODUCING THE SAME, AND AGRO-HORTICULTURAL AGENTS AND INDUSTRIAL MATERIAL PROTECTING AGENTS THEREOF” (KUREHA CORPORATION, priority 2008, published 2011)
Some of these results come from one statement about several compounds together. Some compounds share one range, which may span the group rather than tell each member.

Legend:
[1] = tested on: wheat leaf rust microorganism; assay: Wheat leaf rust preventing effect assay; format: in vivo, Puccinia recondita; conditions: wheat two-leaf phase, 500 mg/L sprayed at 1,000 L/ha, 9 to 14 days after inoculation
[2] = tested on: cucumber gray mold microorganism; assay: Cucumber gray mold preventing effect assay; format: in vivo, Botrytis cinerea; conditions: cucumber cotyledon phase, wettable formulation 500 mg/L sprayed at 1,000 L/ha, 4 days after inoculation
Method: The sprayed leaves were air-dried, and loaded with a paper disc (8 mm in diameter) soaked with a spore suspension of a cucumber gray mold microorganism, and kept at 20 degrees C. and a high humidity. 4 Days after inoculation, the cucumber gray mold severity was investigated, and the protective value was calculated by the following equation. [table]

rice plant = assay: Rice growth regulation assay; format: in vivo; conditions: seed treatment, 36 mg compound per 180 g rice seeds, plant height 20 days after seeding
wheat powdery mildew = assay: Wheat powdery mildew preventing effect by seed treatment; format: in vivo, Erysiphe graminis f. sp tritici; conditions: 2 mg compound per 1 g wheat seeds, 7, 14, 28 and 56 days after seeding, stems and leaves
[3] = tested on: wheat powdery mildew microorganism; assay: Wheat powdery mildew preventing effect assay; format: in vivo, Erysiphe graminis f. sp tritici; conditions: wheat two-leaf phase, 500 mg/L sprayed at 1,000 L/ha, 14 days after inoculation
[4] = tested on: Mucor microorganism (Mucor sp.); assay: Antimicroorganism effect, mycelial extension on PDA plate; format: cell-based; conditions: PDA plate medium, 50 mg/l, 1 to 3 days
[5] = tested on: wheat take-all microorganism (Gaeumannomyces graminis); assay: as above; format: cell-based; conditions: PDA plate medium, 50 mg/l, 1 to 3 days
[6] = tested on: sclerotinia rot microorganism (Sclerotinia sclerotiorum); assay: as above; format: cell-based; conditions: PDA plate medium, 50 mg/l, 1 to 3 days
[7] = tested on: Aureobasidium microorganism (Aureobasidium sp.); assay: as above; format: cell-based; conditions: PDA plate medium, 50 mg/l, 1 to 3 days
[8] = tested on: gray mold microorganism (Botritis cinerea); assay: as above; format: cell-based; conditions: PDA plate medium, 50 mg/l, 1 to 3 days
[9] = tested on: apple alternaria blotch microorganism (Alternaria alternata); assay: as above; format: cell-based; conditions: PDA plate medium, 50 mg/l, 1 to 3 days
[10] = tested on: rice seedling blight microorganism (Rhizopus) (Rhizopus oryzae); assay: as above; format: cell-based; conditions: PDA plate medium, 50 mg/l, 1 to 3 days
[11] = tested on: wood denaturing microorganism (Coriolus versicolor); assay: as above; format: cell-based; conditions: PDA plate medium, 50 mg/l, 1 to 3 days
[12] = tested on: wheat eye spot microorganism (Pseudocercosporella herpotrichoides); assay: as above; format: cell-based; conditions: PDA plate medium, 50 mg/l, 1 to 3 days
[13] = tested on: anthracnose microorganism (Glomerella cingulata); assay: as above; format: cell-based; conditions: PDA plate medium, 50 mg/l, 1 to 3 days
[14] = tested on: rice bakanae disease microorganism (Giberella fujikuroi); assay: as above; format: cell-based; conditions: PDA plate medium, 50 mg/l, 1 to 3 days
[15] = tested on: ricesheath blight microorganism (Rhizoctonia solani); assay: as above; format: cell-based; conditions: PDA plate medium, 50 mg/l, 1 to 3 days
[16] = tested on: citrous blue mold microorganism (Penicillium italicum); assay: as above; format: cell-based; conditions: PDA plate medium, 50 mg/l, 1 to 3 days
[17] = tested on: Aspergillus microorganism (Aspergillus sp.); assay: as above; format: cell-based; conditions: PDA plate medium, 50 mg/l, 1 to 3 days
[18] = tested on: wood denaturing microorganism (Tyromyces palustris); assay: as above; format: cell-based; conditions: PDA plate medium, 50 mg/l, 1 to 3 days
[19] = tested on: barley loose smut microorganism (Ustilago nuda); assay: as above; format: cell-based; conditions: PDA plate medium, 50 mg/l, 1 to 3 days
[20] = tested on: Curvularia microorganism (Curvularia sp.); assay: as above; format: cell-based; conditions: PDA plate medium, 50 mg/l, 1 to 3 days
[21] = tested on: barley stripe microorganism (Pyrenophora graminea); assay: as above; format: cell-based; conditions: PDA plate medium, 50 mg/l, 1 to 3 days
[22] = tested on: Cladosporium microorganism (Cladosporium sp.); assay: as above; format: cell-based; conditions: PDA plate medium, 50 mg/l, 1 to 3 days
[23] = tested on: barley scald microorganism (Rhynchosporium secalis); assay: as above; format: cell-based; conditions: PDA plate medium, 50 mg/l, 1 to 3 days
[24] = tested on: penicillium microorganism (Penicillium sp.); assay: as above; format: cell-based; conditions: PDA plate medium, 50 mg/l, 1 to 3 days
[25] = tested on: cucumber fusarium wilt microorganism (Fusarium oxysporum); assay: as above; format: cell-based; conditions: PDA plate medium, 50 mg/l, 1 to 3 days
[26] = tested on: Tricoderma microorganism (Trichoderma sp.); assay: as above; format: cell-based; conditions: PDA plate medium, 50 mg/l, 1 to 3 days
[27] = tested on: sugar beet cercospora leaf spot microorganism (Cercospora beticola); assay: as above; format: cell-based; conditions: PDA plate medium, 50 mg/l, 1 to 3 days
[28] = tested on: wheat septoria bloth microorganism (Septoria tritici); assay: as above; format: cell-based; conditions: PDA plate medium, 50 mg/l, 1 to 3 days
[29] = tested on: wheat pink snow mold microorganism (Microdochium nivale); assay: as above; format: cell-based; conditions: PDA plate medium, 50 mg/l, 1 to 3 days
[30] = tested on: wheat stagonospora blotch microorganism (Phaeosphaeria nodorum); assay: as above; format: cell-based; conditions: PDA plate medium, 50 mg/l, 1 to 3 days

OC1(Cn2cncn2)C(Cc2ccc(Cl)cc2)CCC12CC2 (single isomer, unassigned) [Compound I-1, 5-(4-chlorobenzyl)-4-(1H-1,2,4-triazol-1-ylmethyl)-4-spiro[2.4]heptanol]
protective value [1]: ≥ 80%
protective value [2]: ≥ 80%
growth regulation grade (rice plant): 4 (% Plant height suppression of less than 50 to 30% or higher)
Powdery mildew controlling index (wheat powdery mildew): 4 (Protective value of 61 to 80)
protective value [3]: ≥ 80%

OC1(Cn2cncn2)C(Cc2ccc(F)cc2)CCC12CC2 (single isomer, unassigned) [Compound I-7, 5-(4-fluorobenzyl)-4-(1H-1,2,4-triazol-1-ylmethyl)-4-spiro[2.4]heptanol]
protective value [1]: ≥ 80%
protective value [2]: ≥ 80%
growth regulation grade (rice plant): 4 (% Plant height suppression of less than 50 to 30% or higher)
Powdery mildew controlling index (wheat powdery mildew): 4 (Protective value of 61 to 80)
protective value [3]: ≥ 80%

OC1(Cn2cncn2)C(Cc2ccc(Cl)cc2)CCC12CC2 (single isomer, unassigned) [Compound I-2, 5-(4-chlorobenzyl)-4-(1H-1,2,4-triazol-1-ylmethyl)-4-spiro[2.4]heptanol]
growth inhibition grade [4]: 4 (% Mycerial extension inhibition of less than 90 to 70% or higher)
growth inhibition grade [5]: 5 (% Mycerial extension inhibition of 90% or higher)
growth inhibition grade [6]: 5 (% Mycerial extension inhibition of 90% or higher)
growth inhibition grade [7]: 4 (% Mycerial extension inhibition of less than 90 to 70% or higher)
growth inhibition grade [8]: 5 (% Mycerial extension inhibition of 90% or higher)
growth inhibition grade [9]: 4 (% Mycerial extension inhibition of less than 90 to 70% or higher)
growth inhibition grade [10]: 4 (% Mycerial extension inhibition of less than 90 to 70% or higher)
growth inhibition grade [11]: 5 (% Mycerial extension inhibition of 90% or higher)
growth inhibition grade [12]: 5 (% Mycerial extension inhibition of 90% or higher)
growth inhibition grade [13]: 5 (% Mycerial extension inhibition of 90% or higher)
growth inhibition grade [14]: 5 (% Mycerial extension inhibition of 90% or higher)
growth inhibition grade [15]: 4 (% Mycerial extension inhibition of less than 90 to 70% or higher)
growth inhibition grade [16]: 5 (% Mycerial extension inhibition of 90% or higher)
growth inhibition grade [17]: 5 (% Mycerial extension inhibition of 90% or higher)
growth inhibition grade [18]: 5 (% Mycerial extension inhibition of 90% or higher)
protective value [1]: ≥ 80%
growth inhibition grade [19]: 4 (% Mycerial extension inhibition of less than 90 to 70% or higher)
growth inhibition grade [20]: 4 (% Mycerial extension inhibition of less than 90 to 70% or higher)
protective value [2]: ≥ 80%
growth regulation grade (rice plant): 4 (% Plant height suppression of less than 50 to 30% or higher)
growth inhibition grade [21]: 5 (% Mycerial extension inhibition of 90% or higher)
growth inhibition grade [22]: 5 (% Mycerial extension inhibition of 90% or higher)
growth inhibition grade [23]: 5 (% Mycerial extension inhibition of 90% or higher)
growth inhibition grade [24]: 5 (% Mycerial extension inhibition of 90% or higher)
growth inhibition grade [25]: 5 (% Mycerial extension inhibition of 90% or higher)
Powdery mildew controlling index (wheat powdery mildew): 4 (Protective value of 61 to 80)
growth inhibition grade [26]: 5 (% Mycerial extension inhibition of 90% or higher)
protective value [3]: ≥ 80%
growth inhibition grade [27]: 5 (% Mycerial extension inhibition of 90% or higher)
growth inhibition grade [28]: 5 (% Mycerial extension inhibition of 90% or higher)
growth inhibition grade [29]: 4 (% Mycerial extension inhibition of less than 90 to 70% or higher)
growth inhibition grade [30]: 5 (% Mycerial extension inhibition of 90% or higher)

OC1(Cn2cncn2)C(Cc2cccc(Cl)c2)CCC12CC2 (single isomer, unassigned) [Compound I-3, 5-(3-chlorobenzyl)-4-(1H-1,2,4-triazol-1-ylmethyl)-4-spiro[2.4]heptanol]
protective value [1]: ≥ 80%
protective value [2]: ≥ 80%
growth regulation grade (rice plant): 4 (% Plant height suppression of less than 50 to 30% or higher)
Powdery mildew controlling index (wheat powdery mildew): 4 (Protective value of 61 to 80)
protective value [3]: ≥ 80%

OC1(Cn2cncn2)C(Cc2cccc(Cl)c2)CCC12CC2 (single isomer, unassigned) [Compound I-4, 5-(3-chlorobenzyl)-4-(1H-1,2,4-triazol-1-ylmethyl)-4-spiro[2.4]heptanol]
growth inhibition grade [4]: 4 (% Mycerial extension inhibition of less than 90 to 70% or higher)
growth inhibition grade [5]: 5 (% Mycerial extension inhibition of 90% or higher)
growth inhibition grade [6]: 5 (% Mycerial extension inhibition of 90% or higher)
growth inhibition grade [7]: 4 (% Mycerial extension inhibition of less than 90 to 70% or higher)
growth inhibition grade [8]: 5 (% Mycerial extension inhibition of 90% or higher)
growth inhibition grade [9]: 4 (% Mycerial extension inhibition of less than 90 to 70% or higher)
growth inhibition grade [10]: 4 (% Mycerial extension inhibition of less than 90 to 70% or higher)
growth inhibition grade [11]: 5 (% Mycerial extension inhibition of 90% or higher)
growth inhibition grade [12]: 5 (% Mycerial extension inhibition of 90% or higher)
growth inhibition grade [13]: 5 (% Mycerial extension inhibition of 90% or higher)
growth inhibition grade [14]: 5 (% Mycerial extension inhibition of 90% or higher)
growth inhibition grade [15]: 4 (% Mycerial extension inhibition of less than 90 to 70% or higher)
growth inhibition grade [16]: 5 (% Mycerial extension inhibition of 90% or higher)
growth inhibition grade [17]: 5 (% Mycerial extension inhibition of 90% or higher)
growth inhibition grade [18]: 5 (% Mycerial extension inhibition of 90% or higher)
protective value [1]: ≥ 80%
growth inhibition grade [19]: 4 (% Mycerial extension inhibition of less than 90 to 70% or higher)
growth inhibition grade [20]: 4 (% Mycerial extension inhibition of less than 90 to 70% or higher)
protective value [2]: ≥ 80%
growth regulation grade (rice plant): 4 (% Plant height suppression of less than 50 to 30% or higher)
growth inhibition grade [21]: 5 (% Mycerial extension inhibition of 90% or higher)
growth inhibition grade [22]: 5 (% Mycerial extension inhibition of 90% or higher)
growth inhibition grade [23]: 5 (% Mycerial extension inhibition of 90% or higher)
growth inhibition grade [24]: 5 (% Mycerial extension inhibition of 90% or higher)
growth inhibition grade [25]: 5 (% Mycerial extension inhibition of 90% or higher)
Powdery mildew controlling index (wheat powdery mildew): 4 (Protective value of 61 to 80)
growth inhibition grade [26]: 5 (% Mycerial extension inhibition of 90% or higher)
protective value [3]: ≥ 80%
growth inhibition grade [27]: 5 (% Mycerial extension inhibition of 90% or higher)
growth inhibition grade [28]: 5 (% Mycerial extension inhibition of 90% or higher)
growth inhibition grade [29]: 4 (% Mycerial extension inhibition of less than 90 to 70% or higher)
growth inhibition grade [30]: 5 (% Mycerial extension inhibition of 90% or higher)

CC1(C)CC12CCC(Cc1ccc(Cl)cc1)C2(O)Cn1cncn1 (stereo not drawn) [Compound I-101, 5-(4-chlorobenzyl)-1,1-dimethyl-4-(1H-1,2,4-triazol-1-ylmethyl)-4-spiro[2.4]heptanol]
protective value [1]: ≥ 80%
protective value [2]: ≥ 80%
growth regulation grade (rice plant): 4 (% Plant height suppression of less than 50 to 30% or higher)
Powdery mildew controlling index (wheat powdery mildew): 4 (Protective value of 61 to 80)
protective value [3]: ≥ 80%
